Data published in the supplement of paper PMC7826260.
The other results are listed elsewhere or left out. The data describe in vitro nicking of single-stranded DNA by Rep domains (1 h at 37 °C, 3 µM enzyme); the outer parts of the 90-letter strands are left off. Values are log2 of uncut reads against the no-enzyme pool; more negative means more cut, near 0 not cut, and no call is made. Counts are relative to all reads, so uncut sequences can rise above 0 when many others are cut.

Tests used:
Assay in all cases: uncleaved DNA left, log2 of reads against the no-enzyme library (log2 ratio); higher = less cleavage (more negative = more Rep cleavage of the k-mer); sequences stand for … in CTCGTCCG…ACCGGAGA
[1] = system: T1, Rep nickase domain of Muscovy duck circovirus
T1 sequence (Rep 1-111, printed without the tag): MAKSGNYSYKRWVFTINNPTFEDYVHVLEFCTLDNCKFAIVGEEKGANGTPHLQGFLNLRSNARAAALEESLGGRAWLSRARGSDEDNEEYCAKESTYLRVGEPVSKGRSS
Protocol: (§1)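 A pool of 90-nt single-stranded DNAs with seven random bases just before the constant AC of the nick site (name = the seven bases) was cut by 3 µM recombinant His6-SUMO-tagged Rep nickase domain (300 nM DNA, 50 mM HEPES pH 8.0, 50 mM NaCl, 1 mM MnCl2, 1 h, 37 °C, three replicates). Uncut DNA was amplified and sequenced.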

[2] = system: T2, Rep nickase domain of banana bunchy top virus
T2 sequence (Rep 1-94, printed without the tag): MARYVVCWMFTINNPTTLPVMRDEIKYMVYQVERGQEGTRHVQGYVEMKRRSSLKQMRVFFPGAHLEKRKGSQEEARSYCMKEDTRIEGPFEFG
Protocol: as §1

[3] = system: T3, Rep nickase domain of cabbage leaf curl virus
T3 sequence (Rep 1-116, printed without the tag): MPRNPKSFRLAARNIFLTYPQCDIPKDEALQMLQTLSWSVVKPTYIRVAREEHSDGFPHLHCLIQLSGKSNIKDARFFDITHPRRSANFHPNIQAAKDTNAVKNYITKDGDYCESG
Protocol: as §1

[4] = system: T4, Rep nickase domain of chickpea chlorotic dwarf virus
T4 sequence (Rep 1-124, printed without the tag): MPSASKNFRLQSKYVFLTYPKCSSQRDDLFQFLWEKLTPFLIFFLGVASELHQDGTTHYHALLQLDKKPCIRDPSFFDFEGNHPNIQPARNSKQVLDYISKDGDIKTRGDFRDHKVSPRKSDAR
Protocol: as §1

[5] = system: T5, Rep nickase domain of faba bean necrotic yellows virus
T5 sequence (Rep 1-98, printed without the tag): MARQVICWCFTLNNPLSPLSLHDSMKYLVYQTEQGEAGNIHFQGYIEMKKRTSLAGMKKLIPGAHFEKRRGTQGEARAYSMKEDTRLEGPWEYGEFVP
Protocol: as §1

[6] = system: T6, Rep nickase domain of maize striate mosaic virus
T6 sequence (Rep 1-117, printed without the tag): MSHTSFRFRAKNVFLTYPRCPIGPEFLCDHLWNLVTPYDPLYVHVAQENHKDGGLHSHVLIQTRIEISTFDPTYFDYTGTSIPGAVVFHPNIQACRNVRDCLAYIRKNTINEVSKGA
Protocol: as §1

[7] = system: T7, Rep nickase domain of porcine circovirus 2
T7 sequence (Rep 2-116, printed without the tag): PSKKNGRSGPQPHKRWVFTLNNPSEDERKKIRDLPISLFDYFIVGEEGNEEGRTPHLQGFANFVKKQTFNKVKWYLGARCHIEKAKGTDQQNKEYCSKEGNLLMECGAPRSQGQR
Protocol: as §1

[8] = system: T8, Rep nickase domain of tomato golden mosaic virus
T8 sequence (Rep 1-124, printed without the tag): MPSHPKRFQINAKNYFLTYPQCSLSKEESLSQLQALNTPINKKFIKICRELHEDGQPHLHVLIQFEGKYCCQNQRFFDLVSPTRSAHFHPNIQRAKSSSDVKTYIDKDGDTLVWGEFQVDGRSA
Protocol: as §1

[9] = system: T9, Rep nickase domain of tomato yellow leaf curl virus
T9 sequence (Rep 1-136, printed without the tag): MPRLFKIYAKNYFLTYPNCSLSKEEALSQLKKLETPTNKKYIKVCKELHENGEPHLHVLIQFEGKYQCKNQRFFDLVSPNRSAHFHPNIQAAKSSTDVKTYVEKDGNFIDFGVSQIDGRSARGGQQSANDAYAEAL
Protocol: as §1

[10] = system: T10, Rep nickase domain of wheat dwarf virus
T10 sequence (Rep 1-137, printed without the tag): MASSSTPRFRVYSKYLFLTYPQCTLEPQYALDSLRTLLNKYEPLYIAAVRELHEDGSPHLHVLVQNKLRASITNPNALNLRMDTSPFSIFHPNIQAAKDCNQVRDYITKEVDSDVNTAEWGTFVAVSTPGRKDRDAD
Protocol: as §1

| Sequence | uncleaved DNA left (log2) [1] | uncleaved DNA left (log2) [2] | uncleaved DNA left (log2) [3] | uncleaved DNA left (log2) [4] | uncleaved DNA left (log2) [5] | uncleaved DNA left (log2) [6] | uncleaved DNA left (log2) [7] | uncleaved DNA left (log2) [8] | uncleaved DNA left (log2) [9] | uncleaved DNA left (log2) [10] |
| --- | --- | --- | --- | --- | --- | --- | --- | --- | --- | --- |
| TATGGGG | 0.107 | -0.0229 | -0.0423 | 0.0829 | 0.147 | -0.505 | 0.134 | 0.113 | -0.0857 | -0.0225 |
| GTGAACT | 0.0264 | 0.0939 | 0.381 | 0.806 | 0.0261 | 1.82 | 0.0298 | -0.0168 | 0.0877 | 0.171 |
| ACTGGAT | 0.124 | 0.0635 | 0.245 | 1.55 | -0.017 | 1.65 | 0.128 | 0.0591 | -0.0656 | -0.0607 |
| AATCCGA | -0.105 | -0.0886 | -0.285 | -0.305 | -0.0481 | -1.02 | 0.126 | -0.113 | -0.131 | -0.0796 |
| TAGGCGA | 0.068 | -0.0615 | -0.513 | -0.695 | 0.153 | -1.11 | 0.113 | -0.111 | 0.0527 | -0.106 |
| GTGATAT | 0.0151 | 0.179 | 0.62 | 1.5 | -0.0361 | 2.04 | 0.106 | 0.146 | 0.126 | 0.189 |
| TGGCCGT | -0.0406 | -0.0242 | -0.171 | -0.179 | -0.175 | -0.311 | -0.00645 | -0.12 | -0.0105 | 0.157 |
| CCCATGA | 0.0308 | 0.115 | -0.0841 | 0.0751 | 0.199 | -0.925 | 0.116 | 0.0669 | 0.116 | 0.175 |
| CAGGTTT | -0.0164 | -0.128 | 0.119 | -0.443 | 0.0534 | 1.52 | -2.44 | 0.0976 | -0.118 | 0.00815 |
| AATCCTG | -0.0239 | -0.0372 | -0.00942 | 0.407 | 0.00468 | 0.794 | 0.00269 | 0.0543 | -0.145 | -0.00443 |
| TTCACCC | -0.0652 | 0.0405 | 0.226 | -0.947 | -0.0359 | -0.0946 | -0.42 | -0.0965 | 0.027 | -0.0205 |
| TCACTTG | -0.103 | -0.149 | -0.324 | -1.16 | -0.113 | -0.947 | 0.0265 | -0.168 | -0.142 | -0.119 |
| TTAAATC | 0.111 | 0.0996 | 0.265 | -0.514 | 0.0506 | -0.301 | 0.104 | 0.0696 | 0.00878 | 0.0251 |
| CGTATTG | -0.0505 | -0.0632 | -0.264 | 0.262 | -0.11 | 0.365 | -0.0896 | -0.156 | -0.0987 | -0.0628 |
| TAAGCCG | 0.0354 | -0.0532 | -0.768 | -0.502 | 0.0609 | -1.17 | 0.17 | -0.103 | 0.00572 | -0.0472 |
| CTGTCGT | 0.0204 | -0.16 | -0.596 | -0.812 | 0.0668 | -1.08 | -0.336 | -0.065 | -0.0514 | -0.0295 |
| CGGACGG | 0.152 | 0.299 | 0.388 | 1.24 | 0.0666 | 1.72 | 0.184 | 0.144 | 0.0938 | 0.144 |
| CGTGGCT | -0.0247 | 0.0677 | -0.238 | -0.257 | -0.00596 | -0.446 | 0.0801 | 0.0353 | -0.0181 | -0.0129 |
| TTAACCT | -0.123 | 0.0764 | -0.196 | -2.52 | 0.042 | -0.344 | -1.15 | 0.00901 | 0.129 | 0.0312 |
| CATTCTG | -0.0531 | 0.0274 | -0.481 | -0.381 | -0.136 | -0.879 | 0.046 | -0.0289 | -0.0181 | 0.0357 |
| TGAGAGA | 0.135 | 0.0539 | 0.544 | 0.815 | 0.0517 | 0.314 | 0.188 | 0.111 | 0.132 | 0.109 |
| TCCTCAG | -0.0805 | -0.011 | -0.433 | -0.777 | 0.073 | -0.945 | 0.142 | 0.0201 | 0.0956 | -0.0683 |
| CCTTAAT | -2.19 | -0.285 | -0.11 | -1.36 | -0.0262 | -0.781 | -3.68 | -0.133 | -0.0832 | -0.129 |
| TATCGAA | -0.108 | -0.0853 | -0.0178 | -0.67 | -0.142 | -0.895 | -0.152 | 0.0557 | -0.0382 | -0.106 |
| TTCGATT | 0.0269 | -0.0584 | 0.0498 | -1.63 | 0.148 | -0.329 | -0.598 | 0.176 | 0.0358 | 0.00552 |
| AGTTTCT | -2.07 | -0.463 | -0.0241 | -1.71 | -0.212 | -0.119 | -3.65 | 0.00336 | -0.0194 | -0.122 |
| GCTGTTG | 0.0538 | -0.15 | -0.258 | -0.114 | 0.00141 | -0.851 | 0.13 | 0.0788 | -0.0594 | -0.131 |
| GGGAGAG | 0.00859 | 0.0819 | 0.953 | 2.09 | 0.0916 | 2.22 | 0.279 | 0.0601 | 0.0316 | 0.216 |
| ATCCAGT | 0.0321 | 0.0914 | -0.204 | -0.67 | 0.0135 | -0.895 | -0.0309 | 0.0863 | -0.086 | 0.0812 |
| TCGCATG | -0.242 | -0.218 | -0.298 | -0.425 | -0.1 | -0.422 | -0.0933 | -0.135 | -0.0547 | -0.218 |
